This assay relates to MIWI (PIWIL1) piRISC loaded with L1MC piRNA (30 nt). The assay is described as follows: pre-steady-state target cleavage rate (min^-1); MIWI and MILI are mouse PIWI proteins and EfPiwi is from a freshwater sponge; tags in brackets are library labels; higher = faster piRNA-guided slicing of the target. The following applies: guide: L1MC piRNA 5'p-UAACUAAAUACUAUGCAAGCUGUAGGUCCU
The method, boiled down: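 Active affinity-purified piRISC carrying one synthetic guide (1 nM) was mixed with a transcribed, DNA-blocked target RNA library […] in HEPES–potassium acetate buffer at 33 °C for 0–8 or 0–960 min, with or without 500 nM GTSF1 partner protein. Uncleaved targets were then sequenced and normalised to depth and to weakly complementary targets. Three trials were pooled, and k3 was capped at 0.0001 min^-1. A burst-and-steady-state fit was applied to obtain the pre-steady-state cleavage rate.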

[1] abbreviates: auxiliary factor: 500 nM mouse GTSF1.
The mark [2] stands for this setting: auxiliary factor: none (no GTSF1).

This is an account of results in the supplement of paper PMC10338343.

± gives the standard deviation. The list shows a part of the results, in another mix than the full data.
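Further: 1 nM active piRISC with 0.1 nM target library at 33 °C single turnover.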

As to UCCUGGAUGUGCGUUGCAUAGUAUUUAGUUA, the “pre-steady-state target cleavage rate” value reads like this: under setting [1], 0.28 ± 0.032; under setting [2], 0.00987 ± 0.0029.

As for UCCUGGUACAGCAUGCAUAGUAUUAAGUUA, the “pre-steady-state target cleavage rate” value amounted to 0.473 ± 0.054 under setting [1] and 0.00723 ± 0.0037 under setting [2].

As to UGGACCUACAGCUUGCAUAGUAUUAAGAAA, the “pre-steady-state target cleavage rate” value was found to be 0.292 ± 0.051 under setting [1] and 0.00292 ± 0.0027 under setting [2].

UCCACCUACCAGCUUGCAUAGUAUUUAGUUA: the “pre-steady-state target cleavage rate” value runs as follows: under setting [1], 0.947 ± 0.051; under setting [2], 0.0439 ± 0.0077.

As to UCGACCUAGAGCUUGCAUAGUAUUUAGAAA, the “pre-steady-state target cleavage rate” value runs as follows: under setting [1], 0.441 ± 0.048; under setting [2], 0.00689 ± 0.0021.

For the sequence UCCUCCUUCAGCUUGGAUAGUAUUUAGUUA, the “pre-steady-state target cleavage rate” value reads like this: under setting [1], 1.19 ± 0.041; under setting [2], 0.0358 ± 0.0057.

In the case of UCCUGGAUCAGCUUGCAUAGUAUUUUGUAA, the “pre-steady-state target cleavage rate” value was 0.269 ± 0.034 under setting [1] and 0.0158 ± 0.0054 under setting [2].

Take “UCCUGGAUGUGCUUGCAUAGUAUUUAGUUG [g2:g20:cont:t1G]”: the “pre-steady-state target cleavage rate” value under setting [1] was determined as 0.366 ± 0.031 and the “pre-steady-state target cleavage rate” value under setting [2] was determined as 0.0463 ± 0.012.

As to UCCUGGAUGUCCUUGCAAAGUAUUUAGUUA, the “pre-steady-state target cleavage rate” value was determined as 0.0368 ± 0.0092 under setting [1] and 0.00699 ± 0.0019 under setting [2].

As for UCCACCUACAGGUUGCAUAGUAAUUAGUUA, the “pre-steady-state target cleavage rate” value worked out at 0.799 ± 0.1 under setting [1] and 0.0102 ± 0.0016 under setting [2].

Take UCCUGGAUGUCCUUGCAUAGUAGUUAGUUA: the “pre-steady-state target cleavage rate” value was 0.00603 ± 0.0046 under setting [1] and 0.00268 ± 0.0023 under setting [2].

In the case of UCCUGGAUGUCCUUGCAUAGUAUUAAGUUA, the “pre-steady-state target cleavage rate” value came to 0.0295 ± 0.0085 under setting [1] and 0.00292 ± 0.0021 under setting [2].

In the case of UCCUGGAUGAGCUUGCAAAGUUUUUAGUUA, the “pre-steady-state target cleavage rate” value by setting is: under setting [1], 0.0598 ± 0.0094; under setting [2], 0.0127 ± 0.0037.

In the case of UGGACCUACACCUUGCAUAGAAUUUAGUUA, the “pre-steady-state target cleavage rate” value was determined as 0.459 ± 0.069 under setting [1] and 0.0186 ± 0.0048 under setting [2].

As for AGGACCUACUGCUUGCAUAGUAUUUAGUUA, the “pre-steady-state target cleavage rate” value under setting [1] is 1.21 ± 0.049 and the “pre-steady-state target cleavage rate” value under setting [2] was 0.0777 ± 0.012.

As to UCCUGGAUGUGCUUGCAAAGUAAUUAGUUA, the “pre-steady-state target cleavage rate” value reads like this: under setting [1], 0.0103 ± 0.0034; under setting [2], 0.00355 ± 0.0018.

On to UCCACCUACACCUUGCAUAGUAUUUAGUUA, for which the “pre-steady-state target cleavage rate” value amounted to 0.959 ± 0.041 under setting [1] and 0.0526 ± 0.0089 under setting [2].

On to UCCACCAUGAGCUUGCAUAGUAUUUAGUUA, for which the “pre-steady-state target cleavage rate” value reads like this: under setting [1], 0.944 ± 0.13; under setting [2], 0.0384 ± 0.0063.

For the sequence AGGACCUACAGCUUGCAUAGUAUUUAGUCUA, the “pre-steady-state target cleavage rate” value runs as follows: under setting [1], 0.231 ± 0.041; under setting [2], 0.0266 ± 0.0083.

As for UGGACCUACAGCUUGCAUUGAAUUUAGUUA, the “pre-steady-state target cleavage rate” value under setting [1] worked out at 0.208 ± 0.02 and the “pre-steady-state target cleavage rate” value under setting [2] was determined as 0.00966 ± 0.0034.

Consider UCCUGGUACAGCUUGGAUAGUAUAUAGUUA, for which the “pre-steady-state target cleavage rate” value by setting is: under setting [1], 0.402 ± 0.073; under setting [2], 0.0156 ± 0.0047.

For UCCUGGAUCAGCUUGCAUAGUUUUUAGAUA, the “pre-steady-state target cleavage rate” value reads like this: under setting [1], 0.0839 ± 0.021; under setting [2], 0.0124 ± 0.0033.

UCCACCUACAGCUAGCAUAGUUUUUAGUUA: the “pre-steady-state target cleavage rate” value by setting is: under setting [1], 0.274 ± 0.021; under setting [2], 0.0134 ± 0.0026.

In the case of UCCUCCUACAGCUUGGAUACUAUUUAGUUA, the “pre-steady-state target cleavage rate” value runs as follows: under setting [1], 0.33 ± 0.025; under setting [2], 0.0211 ± 0.0043.

Turning to UCCUGCUUCAGCUUGCAUAGAAUUUAGUUA, the “pre-steady-state target cleavage rate” value is 0.382 ± 0.028 under setting [1] and 0.0227 ± 0.006 under setting [2].

For UCCUGCUACAGCUUGCAUAGUAAUUAGUUA, the “pre-steady-state target cleavage rate” value runs as follows: under setting [1], 0.64 ± 0.038; under setting [2], 0.0216 ± 0.0052.

Turning to UCCUGGAACUGCUUGCAUAGUAUUAAGUUA, the “pre-steady-state target cleavage rate” value by setting is: under setting [1], 0.288 ± 0.024; under setting [2], 0.0114 ± 0.0043.

In the case of UGGACCUACAGCUUGCAUACUUUUUAGUUA, the “pre-steady-state target cleavage rate” value under setting [1] is 0.0337 ± 0.0046 and the “pre-steady-state target cleavage rate” value under setting [2] was 0.00745 ± 0.0014.

As to UCCUGGAACAGCUUGCAUAGUAAUUUAGUUA, the “pre-steady-state target cleavage rate” value is 0.0998 ± 0.011 under setting [1] and 0.00907 ± 0.0024 under setting [2].

As to UCGACCUUCAGCAUGCAUAGUAUUUAGUUA, the “pre-steady-state target cleavage rate” value is 1.24 ± 0.05 under setting [1] and 0.0242 ± 0.0047 under setting [2].

For the sequence UCCUGGAUGUGCUUGUAUAGUAUUUAGUUA, the “pre-steady-state target cleavage rate” value reads like this: under setting [1], 0.389 ± 0.026; under setting [2], 0.0355 ± 0.0076.

With AGGACCUAGUCCUUGCAUAGUAUUUAGAAA, the “pre-steady-state target cleavage rate” value reads like this: under setting [1], 0.379 ± 0.051; under setting [2], 0.00589 ± 0.0017.

In the case of UGGACGUACAGCUUGCAUAGUAUUUUCAAA, the “pre-steady-state target cleavage rate” value was determined as 0.213 ± 0.034 under setting [1] and 0.00471 ± 0.0022 under setting [2].

Consider AGGAGCUACAGCUUGCAUAGUUUUUAGUUA, for which the “pre-steady-state target cleavage rate” value reads like this: under setting [1], 0.407 ± 0.023; under setting [2], 0.0391 ± 0.0094.

Regarding UCGACCUACAGCUUGCAUAGUAUAAAGUUA, the “pre-steady-state target cleavage rate” value by setting is: under setting [1], 0.574 ± 0.035; under setting [2], 0.0181 ± 0.0052.

As to UCCACCUAGAGGUUGCAUAGUAUUUAGUUA, the “pre-steady-state target cleavage rate” value by setting is: under setting [1], 1.16 ± 0.17; under setting [2], 0.0225 ± 0.0041.

As to UGGAGCUACAGCUUGGAUAGUAUUUAGUUA, the “pre-steady-state target cleavage rate” value was 1.11 ± 0.083 under setting [1] and 0.0533 ± 0.0083 under setting [2].

Turning to UCCUGGUACAGCUUGCAUAGCAUUUAGUUA, the “pre-steady-state target cleavage rate” value reads like this: under setting [1], 0.331 ± 0.065; under setting [2], 0.0226 ± 0.0046.

Take UGGACCUUCAGCUUGCAUAGUAAUUAGUUA: the “pre-steady-state target cleavage rate” value runs as follows: under setting [1], 0.925 ± 0.056; under setting [2], 0.0263 ± 0.0083.

Turning to UGGAGCUACAGCUAGCAUAGUAUUUAGUUA, the “pre-steady-state target cleavage rate” value runs as follows: under setting [1], 1.19 ± 0.05; under setting [2], 0.0354 ± 0.0066.

In the case of UCCUGGAUCAGCCUUGCAUAGUAUUUAGUUA, the “pre-steady-state target cleavage rate” value stood at 0.727 ± 0.041 under setting [1] and 0.0219 ± 0.0056 under setting [2].

On to UCCUGGAACAGCUUGCGAUAGUAUUUAGUUA, for which the “pre-steady-state target cleavage rate” value is, setting by setting: under setting [1], 0.0191 ± 0.0062; under setting [2], 0.0033 ± 0.0028.

For the sequence UCCUGCUACAGCUUGCAUAGUAUUUUGUAA, the “pre-steady-state target cleavage rate” value was 0.274 ± 0.043 under setting [1] and 0.009 ± 0.0031 under setting [2].

As for UCCUGGAUGAGCUUGCAUUGUAUUUAGUAA, the “pre-steady-state target cleavage rate” value reads like this: under setting [1], 0.27 ± 0.033; under setting [2], 0.0102 ± 0.0038.

Turning to AGGACCUACAGCUUGCAUAGCAUUUAGUUA, the “pre-steady-state target cleavage rate” value runs as follows: under setting [1], 0.471 ± 0.033; under setting [2], 0.0409 ± 0.0075.

For UCCACCUACAGCUUGCAUAGUAUUAAGAUA, the “pre-steady-state target cleavage rate” value under setting [1] turned out to be 0.282 ± 0.043 and the “pre-steady-state target cleavage rate” value under setting [2] was 0.00446 ± 0.0035.

With UCCACCUACAGCUUCCUUAGUAUUUAGUUA, the “pre-steady-state target cleavage rate” value was 0.343 ± 0.043 under setting [1] and 0.00162 ± 0.0016 under setting [2].

As for UCCACCUACACCUUGCUUAGUAUUUAGUUA, the “pre-steady-state target cleavage rate” value reads like this: under setting [1], 0.787 ± 0.039; under setting [2], 0.0246 ± 0.0038.

For UCCUGGAACAGCUUGCUUAGUUUUUAGUUA, the “pre-steady-state target cleavage rate” value is, setting by setting: under setting [1], 0.176 ± 0.016; under setting [2], 0.0251 ± 0.0074.

Turning to UGGUGCUACAGCUUGCAUAGUAUUUAGAAA, the “pre-steady-state target cleavage rate” value amounted to 0.171 ± 0.029 under setting [1] and 0.00502 ± 0.0025 under setting [2].

In the case of UCCUGCUAGAGCAUGCAUAGUAUUUAGUUA, the “pre-steady-state target cleavage rate” value runs as follows: under setting [1], 0.62 ± 0.043; under setting [2], 0.0119 ± 0.0032.

For the sequence UGGACGUACAGCUUGCAUAGUAUUUAGUUA, the “pre-steady-state target cleavage rate” value under setting [1] came to 1.26 ± 0.051 and the “pre-steady-state target cleavage rate” value under setting [2] was found to be 0.0691 ± 0.012.

In the case of UCCUGCUAAAGCUUGCAUAGUAUUUAGUUA, the “pre-steady-state target cleavage rate” value runs as follows: under setting [1], 0.242 ± 0.041; under setting [2], 0.0111 ± 0.0018.

As to UCCUGGAACAGCUUGCAAGUAUUUAGUUA, the “pre-steady-state target cleavage rate” value worked out at 0.142 ± 0.018 under setting [1] and 0.00919 ± 0.004 under setting [2].

As to UCCUGGAUCAGGUUGCAUUGUAUUUAGUUA, the “pre-steady-state target cleavage rate” value runs as follows: under setting [1], 0.122 ± 0.015; under setting [2], 0.00468 ± 0.0023.

For UCCACCUACAGCUUGGAUACUAUUUAGUUA, the “pre-steady-state target cleavage rate” value is 0.305 ± 0.026 under setting [1] and 0.0228 ± 0.004 under setting [2].

As to AGCACCUACAGCUAGCAUAGUAUUUAGUUA, the “pre-steady-state target cleavage rate” value under setting [1] worked out at 0.915 ± 0.08 and the “pre-steady-state target cleavage rate” value under setting [2] came to 0.0192 ± 0.0068.

Regarding UCCUGGUACAGGUUGCAAAGUAUUUAGUUA, the “pre-steady-state target cleavage rate” value runs as follows: under setting [1], 0.71 ± 0.038; under setting [2], 0.018 ± 0.0044.

Consider UCCACCUACAGCUUGCAUAGUUAUUUAGUUA, for which the “pre-steady-state target cleavage rate” value is, setting by setting: under setting [1], 0.0679 ± 0.012; under setting [2], 0.00374 ± 0.0023.

On to UCCUGCUACAGCUUGCAUAGUAUAUAGUAA, for which the “pre-steady-state target cleavage rate” value stood at 0.253 ± 0.054 under setting [1] and 0.00409 ± 0.0023 under setting [2].
